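Tested at 5 concentrations; 48 h exposure; 96-well plates; endpoints linearly interpolated, else capped at highest concentration. Here, GI50 denotes the concentration required for 50% inhibition of growth. The concentration for full growth arrest is given as TGI.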 Numbered stars: 1 amine (or outer) side, 2 acyl side, 3 side chain; on linkers, the order of the positions; unused ones are H or OH. Bridge positions count the residues as written; N and C are the ends. Square brackets hold non-standard residues; d marks the D form. Peptide text beside a SMILES is read from it. ξ: configuration not given here. X30 = CCC(C)C(N[*:1])C(O)CC(=O)O[C@H](C(=O)C(C)C(=O)[*:2])C(C)C; X29 = O=C([C@@H]1CC(O)CN1[*:1])[*:2]; NMeY = CN[C@@H](Cc1ccc(O)cc1)C(=O)O; ξNMeL = CNC(CC(C)C)C(=O)O; ξT = CC(O)C(N)C(=O)O

The subject of this assay is NCI-H322M lung. As to the kind of experiment: NCI anticancer screen, dose series, 48 h.

`Cc1ccccc1C(C#N)/C(=N/NC(=O)c1cc2ccccc2cc1O)C(=O)Nc1cccc(Cl)c1` (stereo unspecified): the TGI is above 100 µM.

With `Clc1nc(Cl)c2ncn(C/C=C\Cn3cnc4c(Cl)nc(Cl)nc43)c2n1`, the GI50 is 3.75 µM and the TGI came to 12.5 µM.

On to `CCCCCCCCCCCCCCCCC(C(=O)O)C(O)(CC(=O)O)C(=O)O` (stereo unspecified), for which the TGI turned out to be 35.2 µM.

In the case of `COc1ccc(NC(=O)C2=C(SC)C(C#N)C(=O)N=C2N)cc1` (stereo unspecified), the TGI is above 100 µM.

Compound `Cc1ccc(S(=O)(=O)N(c2ccccc2F)C2CCCCC2O)cc1` (stereo unspecified) had a TGI above 100 µM.

Regarding `CCCCCCCCCCCCCCCCCCOc1ccccc1CC(=O)OCC[N+](C)(C)C`, the GI50 is 1.68 µM and the TGI stood at 3.46 µM.

Turning to `O=c1nc2n(CCO)c(-c3ccccc3)c(-c3ccccc3)nc-2c(=O)[nH]1`, the TGI was above 100 µM.

The compound `Cc1cc2c(cn1)C(=O)OCC2` came in with a TGI above 100 µM.

`CCCCCCN1C(=O)/C(=c2\sc3n(c2=O)C2C(NN=3)N(CC)C(=O)N2CC)c2ccccc21` (stereo unspecified): the GI50 is 1.6 µM and the TGI is above 50 µM.

`c1ccc(C2=NN(c3ccccc3)C3(S2)SC(c2ccccc2)(c2ccccc2)c2ccccc23)cc1` (stereo unspecified) showed a TGI above 100 µM.

Consider `FC(F)(F)c1ccc2c(c1)N(CCCN1CCN(C3CC3)CC1)c1ccccc1S2`, for which the GI50 is 16.7 µM and the TGI came out at 31.9 µM.

On to `COc1cc2c(/C=C3/C(=O)Nc4ccccc43)c(Cl)n(Cc3ccccc3)c2cc1C`, for which the GI50 was above 100 µM and the TGI was above 100 µM.

`Fc1ccc(C(OCCN2CCC3CCC(C2)N3CCCc2ccccc2)c2ccc(F)cc2)cc1` (stereo unspecified) yielded a TGI of 23.1 µM.

For the compound `O=C1CCC(c2nc3ccccc3o2)C(=O)N1` (stereo unspecified), the TGI was above 100 µM.

For `Cc1ccc2c(ccc3c[n+]4ccccc4c(C)c32)c1`, the TGI was 25.6 µM.

Compound `COc1ccc(NS(=O)CCc2ccccc2)cc1` (stereo unspecified) showed a TGI above 100 µM.

In turn, `CCC(=O)N(c1ccccc1)C(C)CN1CCC(O)(c2ccccc2)CC1` (stereo unspecified) displayed a TGI above 100 µM.

In turn, `CC(C)=CCC/C(C)=C/Cc1cc(/C=C/c2cc(O)c(CC=C(C)C)c(O)c2)cc(O)c1O` displayed a TGI of 23.6 µM.

In the case of `O=C(O)C(/C=C/c1ccco1)=N\Nc1nc(-c2ccc(Cl)cc2)cs1`, the GI50 was 20 µM and the TGI was above 50 µM.

As for `CC1CN=C(NCc2ccccc2)S1` (stereo unspecified), the TGI was above 100 µM.

For the compound `CC(C)(C)Cn1c(N)nc2ccc(-c3[nH]c(C(C)(C)C)nc3-c3ccc(F)cc3)nc21`, the GI50 is 5.64 µM and the TGI turned out to be 20.3 µM.

`COc1ccc(NC=O)c(C(O)CCNC(C)=O)c1` (stereo unspecified) showed a TGI above 100 µM.

Take `CCC(C)C1NC(=O)C(NC(=O)C(CC(C)C)N(C)C(=O)[C@@H]2CC(O)CN2)C(C)OC(=O)[C@H](Cc2ccc(OC)cc2)N(C)C(=O)[C@@H]2CCCN2C(=O)[C@H](CC(C)C)NC(=O)C(C)C(=O)[C@H](C(C)C)OC(=O)CC1O` (stereo partly specified) (H-[X29][ξNMeL][ξT][X30]LP[NMeY](Me); ester 3-C): the TGI was 0.155 µM.

On to `N[C@@H]1C[C@H](N)c2c(Cl)sc(Cl)c21`, for which the TGI is above 100 µM.

In the case of `CSc1nc(=S)[nH]c2n[nH]c(C)c12`, the TGI was above 100 µM.

In turn, `CCOc1ccc(C2c3[nH]c4ccccc4c3CCN2C(=O)c2cccs2)cc1` (stereo unspecified) gave a TGI above 100 µM.

Regarding `Cn1c2ccccc2c2c(=O)n(CCCC(=O)NCC(=O)OC(=NC3CCCCC3)NC3CCCCC3)c3c(-c4ccccc4)nnn3c21`, the GI50 is above 100 µM and the TGI was above 100 µM.

On to `COc1ccc2c(c1)c(Cc1c(C)n(C)c3ccc(OC)cc13)c(C)n2C`, for which the TGI was above 100 µM.

With `CSc1nc(C)cc(Nc2ccc(O)c(CN3CCCCC3)c2)n1`, the TGI is above 100 µM.

Compound `CC(=O)Nc1c(C)cc(OCC(=O)O)cc1C` returned a TGI above 100 µM.

`Cc1sc2ncnc(NCCc3ccccc3)c2c1C` returned a TGI of 53.3 µM.

`CN(C(=O)C1=CCCCCC1)c1ccccc1I` displayed a TGI above 100 µM.

On to `NC(=S)N/N=C/c1cc(CN2CCOCC2)c(N)cn1`, for which the TGI is above 100 µM.

As to `O=C(CNC(=O)c1cccc2ccccc12)Nc1ccccc1Oc1cccc(O)c1`, the GI50 is 10.8 µM and the TGI was above 25 µM.

Take `CC(=O)c1c2c(cc3c1CC1(Cc4cc5c(cc4C1)CCC5)C3)CCC2`: the TGI is above 100 µM.

For `CCN(CC)CCCCC1CCN(CC(=O)N2c3ccccc3NC(=O)c3ccccc32)CC1`, the TGI was above 100 µM.

For the compound `O=C(O)CCC(=O)Nc1ccc2c(c1)S(=O)(=O)N(CC(=O)O)C2=O`, the TGI was above 100 µM.

For the compound `CC(C#N)Nc1ccc(Oc2ccc(C(C)(C)c3ccc(Oc4ccc(NC(C)C#N)cc4)cc3)cc2)cc1` (stereo unspecified), the TGI is above 100 µM.

Regarding `N=C(c1ccccc1)N1CCCCC1`, the TGI was above 100 µM.

With `Cc1cccc(C(C)(C)C)c1NC(=O)CC1C(=O)Nc2ccccc2S1=O` (stereo unspecified), the TGI is above 100 µM.

As to `CCCCCCCCCC(=O)OCC1(CO)C/C(=C/CC(C(C)C)C(C)C)C(=O)O1` (stereo unspecified), the TGI was above 100 µM.

In the case of `COc1ccccc1NC(=O)CC(=O)n1nc(C)c(N=Nc2ccccc2F)c1C`, the TGI was above 100 µM.

Consider `Nc1cc(N)c2nc(-c3ccccc3)c(Nc3ccc(F)cc3)nc2c1`, for which the GI50 was 17 µM and the TGI is 35.6 µM.

`COc1cc2c(cc1OC)-c1c(cnn1C1OC(COC(C)=O)C(OC(C)=O)C(OC(C)=O)C1OC(C)=O)CC2` (stereo unspecified) registered a TGI above 100 µM.

Take `O=[N+]([O-])c1cccc(-c2nc3sccn3c2-c2ccnc(NCCCNS(=O)(=O)c3ccc(F)cc3)n2)c1`: the GI50 is 3.21 µM and the TGI is above 100 µM.

In turn, `CCc1cc(Cc2cc(CC)c(NC(=O)C3=CC(=O)CC(c4ccc(OC)cc4)O3)c(CC)c2Cl)c(Cl)c(CC)c1NC(=O)C1=CC(=O)CC(c2ccc(OC)cc2)O1` (stereo unspecified) had a TGI of 75.3 µM.

The compound `O=C(CC(=O)Nc1ccc(Cl)cc1)NNCC(=O)Nc1nc(-c2ccccc2)cs1` showed a TGI above 100 µM.

`O=S(=O)(O)C(F)(F)C(F)(F)C(F)(F)C(F)(F)F` yielded a TGI above 100 µM.

Consider `S=C(Nc1ccccc1)c1ccccn1`, for which the GI50 was above 100 µM and the TGI is above 100 µM.

As to `NN/C(=N\S(=O)(=O)c1cc(Cl)c(Oc2ccc([N+](=O)[O-])cc2Cl)c(Cl)c1)Nc1ccc(Cl)cc1`, the TGI turned out to be 63.9 µM.

`N#Cc1nc(-c2cccc(Br)c2)cc(-c2ccc(Nc3nc(N4CCCCC4)nc(N4CCCCC4)n3)cc2)c1N`: the GI50 is 6.81 µM and the TGI was above 100 µM.

`COC(=O)c1nc(-c2ccc(Cl)c(Cl)c2)nc2ccccc12` gave a TGI above 100 µM.

As for `O=c1c2cc(I)ccc2nc(-c2cccs2)n1Nc1ccccc1`, the TGI was 86.4 µM.

Turning to `COc1c(O)cc(/C=C/c2cc(O)cc3c2[C@@]2(C(=O)O3)c3c(O)cc(O)cc3OC2c2cccc(O)c2)cc1O` (stereo partly specified), the TGI is above 100 µM.

`C[C@]12CC[C@H]3[C@@H](CC=C4C[C@@H](O)CC[C@@]43C)[C@@H]1C/C(=C\c1cccc(OCCN3CCOCC3)c1)[C@@H]2O`: the GI50 was above 100 µM and the TGI was above 100 µM.

In turn, `O=C1/C(=C/c2cccc([N+](=O)[O-])c2)CCCc2ccccc21` registered a TGI of 31.3 µM.

As to `O=C(O)CC(Cc1ccc2c(c1)OCO2)C(=O)O` (stereo unspecified), the TGI is above 100 µM.

As for `COc1cc(C)cc2c1OC(c1ccccc1)CC2=O` (stereo unspecified), the GI50 is above 100 µM and the TGI was above 100 µM.

The compound `COC(=O)/C=C/c1cc(OC)c2c(c1)C(C(=O)OC)C(c1ccc(OC)c(OC)c1)O2` (stereo unspecified) showed a TGI above 100 µM.

The compound `Cc1cc2c(C(C)C)c(O)c(O)c3coc(/c1=c1/c(C)cc4c(C(C)C)c(=O)c(=O)c5coc1c45)c32` came in with a TGI of 17.9 µM.

Turning to `COC(=O)C1=CN(CC2=CC(=O)C(C)=CC2=O)C=C(C(=O)OC)C1c1cccc(OC)c1OC`, the GI50 is 23.7 µM and the TGI was above 75.9 µM.

Consider `C/C(=N\NC(N)=S)c1ccc2c(c1)OCO2`, for which the TGI is above 100 µM.

`C1=CCN(c2ccccc2)CC1` had a TGI above 100 µM.

Regarding `CCc1ccccc1NC(=O)CCc1nc(=S)[nH][nH]1`, the TGI was above 100 µM.

In turn, `Cc1ccc2c(c1)C(C1Cc3c(C)cccc3C1=O)OC2=O` (stereo unspecified) displayed a TGI above 100 µM.

For the compound `N#Cc1c(NC(=O)c2cccs2)[n+]([O-])c2ccccc2[n+]1[O-]`, the GI50 is above 100 µM and the TGI is above 100 µM.

Compound `CCN(CC)c1ccc(/C=C/C2=NN(c3cccc(S(=O)(=O)O)c3)C3(C2)C(Cl)C(=O)N3c2nc3ccccc3s2)cc1` (stereo unspecified) had a TGI of 30.3 µM.

Consider `CN(C)c1cccc2[nH]c(-c3[nH]ncc3Nc3ccnc(N)n3)nc12`, for which the GI50 is 0.0192 µM and the TGI is 0.336 µM.

With `OCCN(CO)CN(CN(CO)CCO)c1nc(N(CN(CO)CCO)CN(CO)CCO)nc(N(CN(CO)CCO)CN(CO)CCO)n1`, the GI50 is 1.79 ng/mL and the TGI worked out at 0.196 µg/mL.

Regarding `OCCNc1nc(NCCO)nc(Nc2ccc(C3=NN(c4cc(Cl)cc(Cl)c4)C(c4ccc(Cl)cc4)C3)cc2)n1` (stereo unspecified), the GI50 is 2.46 µM and the TGI was 6.36 µM.

Compound `Cc1ccc2sc3cc(=O)cc(C)c-3nc2c1` came in with a TGI above 100 µM.

In turn, `CCCCCCN(C(=O)Oc1ccccc1)C(C#N)c1ccccc1` (stereo unspecified) had a TGI above 100 µM.

As for `O=C1N=C2c3c(sc4c3CCCC4)N=CN2C1N=Nc1ccc(Cl)cc1` (stereo unspecified), the GI50 was 33 µM and the TGI was above 100 µM.

On to `Cc1c(-c2ccccc2)c(-c2ccc(OCCN(C)C)cc2)n2ccccc12`, for which the TGI came to 22.3 µM.

`CCOC(=O)[C@H]1C[C@@H](C(=O)c2ccccc2)N2N=C(c3ccc(Br)cc3)C=C[C@H]12` had a TGI above 100 µM.

With `COc1ccc(CCN2CCC(C#N)(c3ccc(OC)c(OC)c3)CC2)cc1OC`, the TGI was above 100 µM.

On to `CC1C2CC(C(C3C(=O)C4CC3C(C)(C)C4C)C2=O)C1(C)C` (stereo unspecified), for which the TGI was above 100 µM.

The compound `C/C(=N\NC(=S)N(C)C)c1ncc[nH]1` gave a TGI above 100 µM.

In turn, `C/C(=N\NC(N)=S)c1ccc(/C(C)=N/NC(N)=S)cc1` had a TGI above 100 µM.

`O=C(CNC(=O)OCc1ccccc1)NCCCCC(NC(=O)OCc1ccccc1)C(=O)O` (stereo unspecified) had a TGI above 100 µM.

With `CCN(CC)CCC(=O)Nc1cccc2c1C(=O)c1c(c(O)c3ccccc3c1O)C2=O`, the GI50 is 34.1 µM and the TGI is above 100 µM.

In the case of `CCOC(=O)c1cc2c(cc1Cl)SC(N(c1ccc(F)cc1)S(=O)(=O)c1ccc(OC)cc1)=NS2(=O)=O`, the GI50 is 26.8 µM and the TGI amounted to 93.6 µM.

Compound `O=c1cc(-c2ccc(O)c(O)c2)oc2cc(OC3OC(CO)C(O)C(O)C3O)cc(O)c12` (stereo unspecified) came in with a TGI above 100 µM.

The record behind these values is PubChem BioAssay (NCI).
